# Reference: PubChem BioAssay AID894 (National Center for Advancing Translational Sciences (NCATS), 2007)
# Several values for one entry are separate records, joined by “and”; a condition that tells them apart may be missing. Equal entries are not always repeated. About 6,500 (4.3%) of roughly 150,000 compounds were called active. The inconclusive results got no clear call from the source; some entries with a clear call stand among them for comparison. The call rests on the fitted dose curve; in most records, active means well fitted inhibition curve with a large enough effect (not every such curve was filed as active); inconclusive means small, poorly fitted or top-dose-only effect, or another doubt; inactive means no such curve, though single readings can be large or run the other way. Potencies of inconclusive entries are left out as doubtful fits.
# Target: 15-hydroxyprostaglandin dehydrogenase [NAD(+)] (Homo sapiens) (UniProt P15428)
# Chain of UniProt P15428 (P15428 whole entry, looked up): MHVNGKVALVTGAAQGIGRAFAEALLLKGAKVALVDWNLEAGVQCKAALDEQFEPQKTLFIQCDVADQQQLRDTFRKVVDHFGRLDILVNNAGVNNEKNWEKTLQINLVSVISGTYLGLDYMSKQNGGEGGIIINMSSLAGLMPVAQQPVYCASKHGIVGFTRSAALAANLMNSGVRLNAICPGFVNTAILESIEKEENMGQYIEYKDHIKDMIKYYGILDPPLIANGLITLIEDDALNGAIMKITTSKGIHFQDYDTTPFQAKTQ
# Experiment: qHTS Assay for Inhibitors of HPGD (15-Hydroxyprostaglandin Dehydrogenase)
# Settings: purified HPGD, NADH fluorescence kinetic, PGE2 substrate; activity change, negative = inhibition: stronger effect = lower value
# Outline: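 20 nM HPGD preincubated 15 min at room temperature with compound in 50 mM Tris-HCl pH 8, 0.01% Tween 20. Started with 1 mM NAD+ and 30 uM prostaglandin E2; NADH fluorescence (360/450 nm) read 5 times over 30-s intervals, last minus first.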
# On the % scale 0 is the no-effect control and ±100 the full control effect; potency means the concentration at half of the fitted maximal effect; tags describe the fitted curve by direction and shape.
SMILES,Potency,"activity change, negative = inhibition"
CCCCN(Cc1cc2cc(OC)ccc2[nH]c1=O)C(=O)c1ccco1,"inconclusive [inhibitor, partial curve]",–
CC(C)=CCC/C(C)=C/C=O,–,inactive: -11.2%
COc1cccc2c1C(=O)c1c(O)c3c(c(O)c1C2=O)C[C@@](O)(C(C)=O)C[C@@H]3O[C@H]1C[C@H](N)[C@H](O)[C@H](C)O1,–,inactive: -8.49% [middle of 4 runs]
CCSc1nnc(NC(=O)c2cc3c(s2)CCCC3)s1,"inconclusive [inhibitor, partial curve]",–
Cn1c2ccccc2c2c(C(=O)NCc3ccco3)cn(C3CCCCC3)c(=O)c21,"inconclusive [inhibitor, partial curve]",–
CCOC(=O)CCNC(=O)Nc1ccc2nc(C)n(Cc3cccc(Cl)c3)c(=O)c2c1,"inconclusive [inhibitor, single point]",–
O=C(CSc1ccc2nnc(-c3ccc(Cl)cc3)n2n1)N1CCCc2ccccc21,"inconclusive [inhibitor, partial curve]",–
COc1cc(-c2noc(-c3ccccc3C(=O)NCc3ccco3)n2)cc(OC)c1OC,–,inactive: -3.69%
COc1ccc(S(=O)(=O)N(CC(=O)O)Cc2ccccc2)cc1OC,–,inactive: -13.7%
C=CCNC(=O)CSc1nc2cc(C(=O)OCC)ccc2n1CC,active: 25.1 µM,–
CC1(C)CC(=O)c2cnc(N3CCN(c4ccccc4)CC3)nc2C1,"inconclusive [inhibitor, single point]",–
CC1(C)CC(=O)C(Sc2ccccc2[N+](=O)[O-])=C(O)C1,"inconclusive [inhibitor, single point]",–
Nc1ccc(S(=O)(=O)O)cc1,–,inactive: -10.1%
COc1ccc(C(=O)NC(C)c2cc(OC)c(OC)cc2Br)cc1 (centres undefined),–,inactive: -5.41%
O=c1oc2ccccc2cc1-c1nc2c(s1)CCCC2,"inconclusive [inhibitor, full curve]",–
COc1ccc(-c2cc3nc(C)cc(N4CC(C)CC(C)C4)n3n2)cc1 (centres undefined),"inconclusive [inhibitor, single point]",–
CCOc1cccc(-c2csc(C3COc4ccccc4O3)n2)c1 (centres undefined),–,inactive: -2.27%
NC(=O)/C(=N\O)c1ccccc1,–,inactive: 2.28%
CC(C)C(=O)Nc1ccc(C(=O)NNC(=O)NC2CCCCC2)cc1,–,inactive: -6.43%
COc1ccc(-c2cc(C(F)(F)F)nc(SCC(=O)NCc3cccs3)n2)cc1OC,"inconclusive [inhibitor, partial curve]",–
COc1ccccc1-c1cc(C(F)(F)F)nc(S(=O)(=O)CCCC(=O)Nc2cc(C)on2)n1,"inconclusive [inhibitor, single point]",–
COc1ccc(-n2nc(C(=O)NCC(=O)Nc3ccccn3)c3ccccc3c2=O)cc1,"inconclusive [inhibitor, single point]",–

SMILES,Potency,"activity change, negative = inhibition"
COc1ccc(-n2nnnc2S(=O)(=O)Cc2ccc(C(=O)O)cc2)cc1,"inconclusive [inhibitor, partial curve]",–
COc1ccc(OC)c2c1CC(C)(C)NC2=O,"inconclusive [inhibitor, partial curve]",–
Cc1noc(C)c1C(=O)N1CCC2(CC1)CN(c1cccc(-c3ccccc3)c1)C2,"inconclusive [inhibitor, single point]",–
COC(=O)C1C(O)=C(C=NCc2ccccc2)C(=O)CC1(C)C (centres undefined),–,inactive: -10.8%
CCOC(=O)C(CC)(CC)C(=O)/C=C/c1ccc(Br)cc1,–,inactive: -12.3%
CCOC(=O)c1[nH]c2ccc(OC)cc2c1NC(C)=O,"inconclusive [inhibitor, partial curve]",–
CN1c2ccccc2C(C)(C)C12C=Nc1c(ccc3ccccc13)O2 (centres undefined),–,inactive: -13%
O=c1[nH]cnc2sc3c(c12)CCCC3,–,inactive: -18.8%
Cc1csc(SCC(=O)c2ccc(S(=O)(=O)N3CCOCC3)cc2)n1,–,inactive: -11.4%
Cc1ccc(S(=O)(=O)N(C)C)cc1-n1c(SCC(=O)Nc2ccc(F)cc2Cl)nc2ccccc2c1=O,"inconclusive [inhibitor, partial curve]",–
O=C1c2cnc3nc(SCc4ccc(Cl)cc4)nn3c2CC2c3ccccc3CCN12 (centres undefined),"inconclusive [inhibitor, partial curve]",–
Cc1ccc(-c2nc3cccnc3s2)cc1NS(=O)(=O)c1ccc2c(c1)CCCC2,"inconclusive [inhibitor, single point]",–
O=c1oc2c(O)c(O)cc3c(=O)oc4c(O)c(O)cc1c4c23,active: 126 nM and active: 891 nM,–
O=C1CC2(CCCC2)CC(=O)N1CCCCNC[C@H]1COc2ccccc2O1,–,inactive: -1.75%
c1ccc(-c2ccc(N3CCCC4(CCNCC4)C3)cc2)cc1,"inconclusive [inhibitor, partial curve]",–
CCOc1cc(/C=C2\SC(=N)N(c3nonc3N)C2=O)ccc1OCC(N)=O,active: 12.6 µM,–
N=C1C(c2nc3ccccc3[nH]2)=C(O)CN1c1ccc(F)cc1,"inconclusive [inhibitor, single point]",–
CCOC(=O)c1c(NC(=O)Cn2cnc3sc(C)c(-c4ccccc4)c3c2=O)sc(C)c1C,"inconclusive [inhibitor, partial curve]",–
Cc1ccc2c(Cl)cc(Cl)c(OCC(=O)OCC(=O)Nc3ccc(C#N)cc3)c2n1,"inconclusive [inhibitor, partial curve]",–
CC(=O)c1ccc(N2CCN(C(=O)c3cc(-c4ccc5c(c4)OCO5)nc4ccccc34)CC2)cc1,"inconclusive [inhibitor, partial curve]",–
Cc1[nH]c(=O)c(C#N)c2c1CSC(C)(C)C2,"inconclusive [inhibitor, partial curve]",–
CCOC(=O)c1c(NC(=O)c2c(Br)cnn2C)c(C#N)nn1-c1ccccc1,"inconclusive [inhibitor, partial curve]",–
